Substitutions are numbered along the chain they refer to. Read-outs that look alike come from different tables or passages of the source.
How the values were obtained:
[1] = target: human IL-1R on HEK293-CD40L reporter cells (human); assay: cell-based or functional assay
[2] = target: T1, hPD-L1 (Acro Biosystems, PD1-H5229) (human, UniProt Q9NZQ7 partial chain); assay: ELISA, hPD-L1 coated, anti-human Fc-HRP, OD450
T1 construct: also called human PD-L1; hPD-L1 protein

[3] = target: T2, human PD-L1 expressed on cells (human, UniProt Q9NZQ7); assay: cell-based or functional assay
[4] = target: T2, human PD-L1 expressed on cells; assay: flow cytometry on 293T-PD-L1-CD3L cells, PE anti-human IgG, Mean PE-A
[5] = target: T3, Human IL-1RI-his (Sino Biological, Cat #10126-H08H) (human, UniProt P14778 18-332); assay: competition ELISA, human IL-1β coated, Human IL-1RI-his added with the titrated sample, anti-His-HRP, OD450
T3 construct: not shown: His tag
T3 sequence (looked up): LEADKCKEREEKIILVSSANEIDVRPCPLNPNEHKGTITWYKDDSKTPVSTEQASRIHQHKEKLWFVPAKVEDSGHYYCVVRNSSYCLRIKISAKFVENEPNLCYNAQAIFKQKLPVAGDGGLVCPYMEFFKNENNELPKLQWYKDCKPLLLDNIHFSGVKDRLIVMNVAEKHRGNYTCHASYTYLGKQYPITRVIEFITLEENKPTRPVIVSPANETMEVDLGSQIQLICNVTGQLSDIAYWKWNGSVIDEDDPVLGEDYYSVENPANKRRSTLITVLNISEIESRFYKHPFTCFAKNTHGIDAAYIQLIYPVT

[6] = target: T1, hPD-L1 (Acro Biosystems, PD1-H5229); assay: ELISA, hPD-L1 coated, anti-human Fc-HRP, OD450; remark: listed apart in the source
[7] = target: T2, human PD-L1 expressed on cells; assay: cell-based or functional assay; remark: listed apart in the source
human PD-L1-His = target: T4, human PD-L1-His (human, UniProt Q9NZQ7 partial chain, limits assumed); assay: SPR (Biacore); fusion on Protein A chip, PD-L1 his as analyte
T4 construct: not shown: His tag

[8] = target: T1, hPD-L1 (Acro Biosystems, PD1-H5229); assay: ELISA, hPD-L1 coated, anti-human Fc-HRP, OD450; remark: listed apart in the source
human PD-L1-Fc = target: T5, human PD-L1-Fc (human, UniProt Q9NZQ7 partial chain); assay: competition ELISA, hPD-L1-Fc coated; blocked ligand B7-1, OD450
T5 construct: also called hPD-L1-Fc; human PD-L1-Fc (Sino Biological, 70110-D02H); not shown: Fc part

T2 sequence (Q9NZQ7 19-290): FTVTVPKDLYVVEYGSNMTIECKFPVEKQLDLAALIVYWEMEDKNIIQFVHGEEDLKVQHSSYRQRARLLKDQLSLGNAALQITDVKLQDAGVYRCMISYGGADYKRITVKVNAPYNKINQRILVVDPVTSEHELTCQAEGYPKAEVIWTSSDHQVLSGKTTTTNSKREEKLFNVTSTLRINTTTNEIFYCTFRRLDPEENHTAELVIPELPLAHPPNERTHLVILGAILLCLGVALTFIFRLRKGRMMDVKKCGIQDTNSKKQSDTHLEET
T1 sequence (Q9NZQ7 19-238 limits assumed): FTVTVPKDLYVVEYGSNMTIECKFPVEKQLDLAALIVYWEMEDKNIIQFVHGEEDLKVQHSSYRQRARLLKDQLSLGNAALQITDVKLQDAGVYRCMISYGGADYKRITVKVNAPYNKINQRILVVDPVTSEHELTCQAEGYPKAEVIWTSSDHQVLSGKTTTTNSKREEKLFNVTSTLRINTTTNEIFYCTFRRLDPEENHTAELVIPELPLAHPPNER
Chain of human PD-L1-His (Q9NZQ7 19-238 limits assumed): as above
Chain of human PD-L1-Fc (Q9NZQ7 19-239 limits assumed): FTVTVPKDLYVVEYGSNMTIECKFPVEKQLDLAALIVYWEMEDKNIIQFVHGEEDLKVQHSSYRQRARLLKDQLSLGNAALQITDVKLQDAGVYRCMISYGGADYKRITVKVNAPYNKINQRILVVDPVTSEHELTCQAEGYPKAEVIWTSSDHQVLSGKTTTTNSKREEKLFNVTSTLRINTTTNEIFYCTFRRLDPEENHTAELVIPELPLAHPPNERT

B1: AM4B6-hIgG1-IL-1RA (other)
heavy: QVQLVQSGAEVKKPGASVKVSCKASGYVFTDYYMNWVRQAPGQSLEWMGDINPNNAETLYNHKFKGRVTVTVDKSISTAYMELSRLRSDDTAVYYCVKWGDGPFAYWGQGTLVTVSS[human IgG1 constant region omitted here]GGGGSGGGGSGGGGSGGGGSGKMQAFRIWDVNQKTFYLRNNQLVAGYLQGPNVNLEEKIDVVPIEPHALFLGIHGGKMCLSCVKSGDETRLQLEAVNITDLSENRKQDKRFAFIRSDSGPTTSFESAACPGWFLCTAMEADQPVSLTNMPDEGVMVTKFYFQEDE
light: DIQMTQSPSSLSASVGDRVTITCKASQNVGAAVAWYQQKPGKAPKLLIYSVSDRYTGVPSRFSGSGSGTDFTLTISSLQPEDIATYYCQQYSNYPTFGQGTKLEIKRTVAAPSVFIFPPSDEQLKSGTASVVCLLNNFYPREAKVQWKVDNALQSGNSQESVTEQDSKDSTYSLSSTLTLSKADYEKHKVYACEVTHQGLSSPVTKSFNRGEC
notes: Bi-functional fusion of AM4B6 IgG1 with IL-1RA (34-177) on the heavy chain C-terminus; also called AM4B6-hIgG1-IL-1RA (34-177); AM4B6-hIgG1-IL-1RA BsAb
**Q.** How did the “IC50, SEAP at OD 620 nm, HEK-Blue CD40L reporter cells stimulated with human IL-1β” value [1] turn out when B1 was run?
**A.** 0.0434 nM

**Q.** What about the EC50 [2] of the same binder?
**A.** 0.0815 nM

**Q.** What about the “IC50 (so in the source), NFAT-luciferase luminescence, 293T-PD-L1-CD3L cells with Jurkat-NFAT-Luc-PD1 cells” value [3] of the same binder?
**A.** 1.23 nM

**Q.** What about the EC50 [4] of the same binder?
**A.** 1.15 nM

**Q.** What about the IC50 [5] of the same binder?
**A.** 5.95 nM

B2: AM-4B6-hIgG1-TGFβRII variant 10 (other)
heavy: QVQLVQSGAEVKKPGASVKVSCKASGYVFTDYYMNWVRQAPGQSLEWMGDINPNNAQTVYNHKFKGRVTVTVDKSISTAYMELSRLRSDDTAVYYCVKWGDGPFAYWGQGTLVTVSS[human IgG1 constant region omitted here]GGGGSGGGGSGGGGSGGGGSGTIPPHVQKSVNNDMIVTDNNGAVKFPQLCKFCDVRFSTCDNQKSCMSNCSITSICEKPQEVCVAVWRKNDENITLETVCHDPKLPYHDFILEDAASPKCIMKEKKKPGETFFMCSCSSDECNDNIIFSEEYNTSNPD
light: B1 light with G30P, V51A, D53N
**Q.** How did the “EC50 (read off the curve)” value [6] turn out when B2 was run?
**A.** ~0.4 nM

**Q.** What about the “EC50, NFAT-luciferase luminescence, 293T-PD-L1-CD3L cells with Jurkat-NFAT-Luc-PD1 cells” value (“EC50, NFAT-luciferase luminescence” for short) [7] of the same binder?
**A.** 1.2 nM

**Q.** And the Kd (human PD-L1-His)?
**A.** 0.604 nM

**Q.** And the koff (human PD-L1-His)?
**A.** 0.000148 s⁻¹

**Q.** What about the kon (human PD-L1-His) of the same binder?
**A.** 244000 M⁻¹ s⁻¹

B3: AM-4B6-hIgG1-TGFβRII variant 5 (other)
heavy: B2 heavy with Q57E, V59L
light: B1 light with G30K, A31G, V51A, D53N
**Q.** What does the source list for B3?
**A.** EC50, NFAT-luciferase luminescence, 293T-PD-L1-CD3L cells with Jurkat-NFAT-Luc-PD1 cells [7]: 1.07 nM; Kd (human PD-L1-His): 0.722 nM; koff (human PD-L1-His): 0.000149 s⁻¹; kon (human PD-L1-His): 206000 M⁻¹ s⁻¹; EC50 (read off the curve) [8]: ~0.6 nM

B4: AM-4B6-hIgG1-TGFβRII variant 7 (other)
heavy: B2 heavy with Q57E, V59L
light: B1 light
**Q.** What does the source list for B4?
**A.** IC50 (human PD-L1-Fc): 1.19 nM; EC50, NFAT-luciferase luminescence, 293T-PD-L1-CD3L cells with Jurkat-NFAT-Luc-PD1 cells [7]: 0.711 nM; Kd (human PD-L1-His): 0.388 nM; koff (human PD-L1-His): 0.000148 s⁻¹; kon (human PD-L1-His): 382000 M⁻¹ s⁻¹; EC50 (read off the curve) [8]: ~0.6 nM

B5: AM-4B6-hIgG1-TGFβRII variant 11 (other)
heavy: B2 heavy
light: B1 light
**Q.** How did the “EC50 (read off the curve)” value [6] turn out when B5 was run?
**A.** ~0.4 nM

**Q.** And the “EC50, NFAT-luciferase luminescence” value [7]?
**A.** 0.893 nM

**Q.** And the Kd (human PD-L1-His)?
**A.** 0.508 nM

**Q.** And the koff (human PD-L1-His)?
**A.** 0.000137 s⁻¹

**Q.** And the kon (human PD-L1-His)?
**A.** 269000 M⁻¹ s⁻¹

B6: AM-4B6-hIgG1-TGFβRII variant 2 (other)
heavy: B2 heavy with V59Q
light: B1 light with G30P, V51A, D53N
**Q.** With B6 as the binder, how does the “EC50, NFAT-luciferase luminescence” value [7] read?
**A.** 0.868 nM

**Q.** What about the Kd (human PD-L1-His) of the same binder?
**A.** 0.519 nM

**Q.** What about the koff (human PD-L1-His) of the same binder?
**A.** 0.000168 s⁻¹

**Q.** And the kon (human PD-L1-His)?
**A.** 323000 M⁻¹ s⁻¹

B7: AM-4B6-hIgG1-TGFβRII variant 6 (other)
heavy: B2 heavy with Q57E, V59L
light: B1 light with G30P, V51A, D53N
**Q.** B7 was tested. Which “EC50 (read off the curve)” value [8] did it give?
**A.** ~0.6 nM

B8: AM-4B6-hIgG1-TGFβRII variant 8 (other)
heavy: B2 heavy with Q57E, V59L
light: B1 light with V51R, D53V
**Q.** With B8 as the binder, how does the “EC50 (read off the curve)” value [8] read?
**A.** ~0.6 nM

B9: AM-4B6-hIgG1-TGFβRII variant 9 (other)
heavy: B2 heavy
light: B1 light with G30K, A31G, V51A, D53N
**Q.** How did the “EC50 (read off the curve)” value [6] turn out when B9 was run?
**A.** ~0.4 nM

B10: AM-4B6-hIgG1-TGFβRII variant 12 (other)
heavy: B2 heavy
light: B1 light with V51R, D53V
**Q.** Which “EC50 (read off the curve)” value [6] does the source give for B10 here?
**A.** ~0.4 nM

Reference: US20250282874A1 (SUZHOU TRANSCENTA THERAPEUTICS, published 2025)
